Results on 153 variants are retold here after a collection of fitness landscapes (doi:10.1126/science.1257360).

First the molecules themselves.
B1: PhoQ; a variant is named by its letters at X, in order, P23837 (parent)
chain: MKKLLRLFFPLSLRVRFLLATAAVVLVLSLAYGMVALIGYSVSFDKTTFRLLRGESNLFYTLAKWENNKLHVELPENIDKQSPTMTLIYDENGQLLWAQRDVPWLMKMIQPDWLKSNGFHEIEADVNDTSLLLSGDHSIQQQLQEVREDDDDAEMTHSVAVNVYPATSRMPKLTIVVVDTIPVELKSSYMVWSWFIYVLSANLLLVIPLLWVAAWWSLRPIEALAKEVRELEEHNRELLNPATTRELTSLVRNLNRLLKSERERYDKYRTTLTDLTHSLKTPLXXLQXXLRSLRSEKMSVSDAEPVMLEQISRISQQIGYYLHRASMRGGTLLSRELHPVAPLLDNLTSALNKVYQRKGVNISLDISPEISFVGEQNDFVEVMGNVLDNACKYCLEFVEISARQTDEHLYIVVEDDGPGIPLSKREVIFDRGQRVDTLRPGQGVGLAVAREITEQYEGKIVAGESMLGGARMEVIFGRQHSAPKDE

Some of the results follow.

The assay covers variants of B1. As to the kind of experiment: enrichment ratio after two sorts for PhoP signalling (ratio (wild type AVST 3.29)); higher = more functional. The settings on record: with PhoP (E. coli).
With HFIS, the enrichment ratio was at most 0.25. Then EMPK, with at most 0.25. With YMMG, the enrichment ratio amounted to 0.304. Then GKAM, with at most 0.25; and SRIP, with at most 0.25; and HWVV, with at most 0.25. Then GEGM, with at most 0.25; and DDIM, with at most 0.25. Then VNDM, with at most 0.25. TDPK: the enrichment ratio is at most 0.25. Then KYIT, with at most 0.25. Then KVGI, with at most 0.25; and FRTV, with at most 0.25; and PMQP, with at most 0.25. Then ISNS, with at most 0.25; and NKIN, with at most 0.25. YNVW: the enrichment ratio is at most 0.25.

YPAQ: the enrichment ratio was at most 0.25. For the variant MAGK, the enrichment ratio is at most 0.25. Then RQRE, with at most 0.25. With HENV, the enrichment ratio was at most 0.25. With TYQT, the enrichment ratio was at most 0.25.

EDVM: the enrichment ratio is at most 0.25. Then LDCV, with at most 0.25; and GMWD, with at most 0.25; and CSYR, with at most 0.25. For PCEP, the enrichment ratio is at most 0.25. For VTCT, the enrichment ratio was at most 0.25. Then PRWF, with at most 0.25. Then FKSR, with at most 0.25; and MMGI, with at most 0.25; and HMGD, with at most 0.25. PCVP: the enrichment ratio was at most 0.25. On to AQIG, for which the enrichment ratio amounted to 5.21. Then VITT, with at most 0.25. Then HGAL, with at most 0.25; and NTLC, with at most 0.25. Then EIRI, with at most 0.25; and TYAA, with 0.257. On to ISWA, for which the enrichment ratio was at most 0.25.

PNYM: the enrichment ratio is at most 0.25. Then WDPV, with at most 0.25; and YLEW, with at most 0.25.

As for SVAC, the enrichment ratio was 3.64. For the variant HECL, the enrichment ratio was at most 0.25. Then CFLQ, with at most 0.25. With RFFL, the enrichment ratio was at most 0.25.

Consider SLMS, for which the enrichment ratio turned out to be 0.7. Then MCKA, with at most 0.25. Then RVLY, with at most 0.25; and FLHH, with at most 0.25; and LKGP, with at most 0.25. Consider RDNI, for which the enrichment ratio is at most 0.25. For TREY, the enrichment ratio was at most 0.25. Take QYCP: the enrichment ratio was at most 0.25. Then ELHG, with at most 0.25.

As to RHYK, the enrichment ratio was at most 0.25. Then GSWR, with at most 0.25. Then PLNG, with at most 0.25; and YFGK, with at most 0.25.

As to AFTG, the enrichment ratio amounted to 5.35. On to MRGM, for which the enrichment ratio is at most 0.25.

Regarding GWAM, the enrichment ratio is at most 0.25. Then YAKH, with at most 0.25; and WKMW, with at most 0.25.

With YTCL, the enrichment ratio worked out at 5.77. As for PWPD, the enrichment ratio is at most 0.25. Regarding NWLQ, the enrichment ratio is at most 0.25.

Consider PEMA, for which the enrichment ratio is at most 0.25. Then DLRT, with at most 0.25; and LTSK, with at most 0.25; and LEKP, with at most 0.25. Then NEWC, with at most 0.25.

Consider YHEC, for which the enrichment ratio was at most 0.25.

In the case of KEVF, the enrichment ratio is at most 0.25.

As for VKQV, the enrichment ratio is at most 0.25. Then NMGY, with at most 0.25. Then FAKK, with at most 0.25. Consider TMST, for which the enrichment ratio turned out to be 6.57. Then WKVL, with at most 0.25; and HWCN, with at most 0.25; and DNQS, with at most 0.25. Then PFWP, with at most 0.25; and KMLA, with at most 0.25. With LKAG, the enrichment ratio is at most 0.25.

Consider SCAM, for which the enrichment ratio worked out at 11.2. Turning to VAYD, the enrichment ratio is at most 0.25. On to TEPM, for which the enrichment ratio is at most 0.25. Regarding KKIW, the enrichment ratio was at most 0.25. Then ETEI, with at most 0.25; and GHFV, with at most 0.25; and VSDI, with at most 0.25. Then NIWD, with at most 0.25. Then DKWI, with at most 0.25; and YAHN, with at most 0.25; and LVWI, with at most 0.25.

For the variant QMEC, the enrichment ratio was at most 0.25.

On to MDQG, for which the enrichment ratio was at most 0.25. As for DGLP, the enrichment ratio was at most 0.25. Then MDWW, with at most 0.25; and RSTE, with at most 0.25.

Regarding TWNW, the enrichment ratio was at most 0.25.

Turning to IGYA, the enrichment ratio was at most 0.25.

In the case of PIMP, the enrichment ratio was at most 0.25.

For the variant TCCH, the enrichment ratio was found to be 7.95.

Regarding TETP, the enrichment ratio was at most 0.25.

For the variant LHPP, the enrichment ratio is at most 0.25. Then KYYT, with at most 0.25; and SIHH, with at most 0.25. Then WGWK, with at most 0.25; and YWFR, with at most 0.25. NNAH: the enrichment ratio is at most 0.25.

On to AYIG, for which the enrichment ratio turned out to be 3.45. Then QHNP, with at most 0.25; and SYIS, with at most 0.25; and NLHH, with at most 0.25.

In the case of MEQL, the enrichment ratio was at most 0.25. ITLE: the enrichment ratio worked out at 1.41. Take MIKS: the enrichment ratio is at most 0.25.

PIIW: the enrichment ratio is 0.353. Then KNGM, with at most 0.25; and RQFA, with at most 0.25. For the variant VPGN, the enrichment ratio was at most 0.25. For RFWG, the enrichment ratio is at most 0.25. Then LQSI, with at most 0.25; and SWKN, with at most 0.25; and SHLT, with at most 0.25. Then DGQN, with at most 0.25. Then GDSY, with at most 0.25. Take HQQT: the enrichment ratio is at most 0.25. Then FWYG, with at most 0.25. Then NPTM, with at most 0.25. With RSHT, the enrichment ratio is at most 0.25. For YHLE, the enrichment ratio was at most 0.25. Then ASTE, with 6.22; and DTTW, with at most 0.25; and SDKC, with at most 0.25. Then QPCR, with at most 0.25; and RHKQ, with at most 0.25; and DHIT, with at most 0.25.

In the case of RGKA, the enrichment ratio was at most 0.25. In the case of PSIL, the enrichment ratio was at most 0.25. Then EDGM, with at most 0.25; and RVAH, with at most 0.25. In the case of AIPW, the enrichment ratio was at most 0.25.

For the variant PMRT, the enrichment ratio is at most 0.25. With SSRR, the enrichment ratio is at most 0.25. Then KRRG, with at most 0.25. Then SGNR, with at most 0.25. Then TCYN, with 3.25; and DNDR, with at most 0.25; and AMLI, with 4.3. Regarding NDSR, the enrichment ratio is at most 0.25.
